In the supplement of paper PMC9446081:
The whole screen tested about 39,000 compounds, of which about 220 (0.56%) showed activity. This is one part of the list.

The compounds below were run on Escherichia coli K-12 BW25113 (assay: relative growth (OD600 normalised to plate interquartile mean) (fraction); higher = less growth inhibition, active = 0.2 or less). Details: 50 µM; LB; incubation time: overnight (16-24 h).
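Note: static incubation at 37 °C against the wild-type strain, values averaged over two biological replicates.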

Row | Structure (SMILES) | relative growth
1 | Cc1ccccc1S(=O)(=O)N1C[C@H](O)COC[C@@H]2O[C@@H](CC(=O)N3CCN(C)CC3)CC[C@H]21 | inactive: 1.01
2 | COc1ccc(S(=O)(=O)Nc2ccc3c(c2)C(=O)N([C@H](C)CO)C[C@@H](C)[C@@H](CN(C)S(=O)(=O)c2ccc(C)cc2)O3)cc1 | inactive: 1.06
3 | C[C@@H]1CN([C@@H](C)CO)C(=O)c2cc(NC(=O)NC3CCCCC3)ccc2O[C@@H](C)CCCCO[C@H]1CN(C)CC1CCCCC1 | inactive: 0.905
4 | CCc1nc2ccc(C(=O)Nc3cc(-c4ccccc4)ccc3OC)cn2c1N(C)Cc1ccc(Cl)cc1 | inactive: 1.01
5 | Cc1noc(C)c1NC(N)=O | inactive: 0.995
6 | COc1ccc(S(=O)(=O)N(C)C[C@@H]2Oc3c(NC(=O)Nc4c(C)noc4C)cccc3C(=O)N([C@H](C)CO)C[C@@H]2C)cc1 | inactive: 0.98
7 | O=C(O)[C@H](O)[C@@H](O)[C@H](O[C@@H]1O[C@H](CO)[C@H](O)[C@H](O)[C@H]1O)[C@H](O)CO | inactive: 0.967
8 | Cc1noc(C)c1S(=O)(=O)Nc1cccc2c1O[C@@H](CN(C)C(=O)NC1CCCCC1)[C@@H](C)CN([C@@H](C)CO)C2=O | inactive: 0.982
9 | C[C@H](CO)N1C[C@H](C)[C@H](CN(C)Cc2ccc(F)cc2)Oc2cc(C#CC(C)(C)O)ccc2S1(=O)=O | inactive: 0.93
10 | COc1ccc(NC(=O)Nc2ccc3c(c2)C(=O)N([C@H](C)CO)C[C@@H](C)[C@H](CN(C)Cc2ccc4c(c2)OCO4)OCCCC[C@H](C)O3)cc1 | inactive: 0.977
11 | Cc1ccccc1-c1ccc2c(c1)O[C@H](CN(C)C(=O)Nc1ccc(C(F)(F)F)cc1)[C@H](C)CN([C@@H](C)CO)S2(=O)=O | inactive: 1.03
12 | C[C@@H]1CN([C@@H](C)CO)C(=O)c2cccc(NC(=O)c3cnccn3)c2O[C@@H]1CN(C)S(C)(=O)=O | inactive: 0.98
13 | C[C@@H]1CCCCO[C@@H](CN(C)C(=O)c2ccccc2)[C@@H](C)CN([C@H](C)CO)C(=O)c2cc(NS(=O)(=O)c3ccccc3)ccc2O1 | inactive: 1.02
14 | C[C@@H]1CCCCO[C@H](CN(C)C(=O)C2CCCCC2)[C@H](C)CN([C@@H](C)CO)C(=O)c2cc(NS(=O)(=O)c3ccc(F)cc3)ccc2O1 | inactive: 0.94
15 | COc1ccc2c(c1)[C@@H](NCC=C(C)C)[C@H](C)[C@H]2c1ccccc1 | inactive: 1
16 | CO[C@@H]1CN(C)C(=O)c2cc(NS(C)(=O)=O)ccc2OC[C@@H](C)N(S(=O)(=O)CC(F)(F)F)C[C@H]1C | inactive: 0.976
17 | COc1ccc(S(=O)(=O)N(C)C[C@@H]2Oc3ccc(NC(=O)CCN4CCOCC4)cc3C(=O)N([C@H](C)CO)C[C@H]2C)cc1 | inactive: 0.99
18 | C[C@H](C(=O)O)N1C(=O)c2ccccc2C1=O | inactive: 1.01
19 | COc1ccc(NC(=O)Nc2ccc3c(c2)C(=O)N([C@H](C)CO)C[C@H](C)[C@H](CN(C)Cc2ccncc2)OCCCC[C@@H](C)O3)cc1 | inactive: 0.967
20 | COCC#Cc1cnc2c(c1)C(=O)N([C@H](C)CO)C[C@H](C)[C@H](CN(C)C(C)=O)O2 | inactive: 1.01

Row | Structure (SMILES) | relative growth
21 | C[C@H]1CN([C@@H](C)CO)S(=O)(=O)c2ccc(C#Cc3ccccc3F)cc2O[C@H]1CN(C)C(=O)Cc1ccncc1 | inactive: 1.01
22 | C[C@@H]1CN([C@@H](C)CO)C(=O)c2cccc(NS(=O)(=O)c3cccs3)c2O[C@@H]1CN(C)S(=O)(=O)c1ccc(F)cc1 | inactive: 0.93
23 | COc1cccc(NC(=O)N[C@H]2CC[C@@H](CC(=O)N3CCOCC3)O[C@@H]2CO)c1 | inactive: 0.998
24 | C[C@H](CO)N1C[C@H](C)[C@@H](CN(C)Cc2ccc(-c3ccccc3)cc2)Oc2ccc(NC(=O)CCC(F)(F)F)cc2C1=O | inactive: 0.894
25 | CNC1C(O)C(OC2C(N)CC(N)C(OC3OC(CN)=CCC3N)C2O)OCC1(C)O.O=S(=O)(O)O (stereo not given) | inactive: 1.18
26 | C[C@H]1CCCCO[C@@H](CN(C)C(=O)NC2CCCCC2)[C@@H](C)CN([C@@H](C)CO)C(=O)c2cc(NC(=O)c3ccccc3)ccc2O1 | inactive: 1.03
27 | O=C1NC(=O)[C@]2(CCc3ccccc32)N1 | inactive: 1.01
28 | C[C@H]1CCCCO[C@H](CN(C)Cc2ccccc2)[C@@H](C)CN([C@@H](C)CO)C(=O)c2cc(NC(=O)Cc3ccccc3)ccc2O1 | inactive: 0.943
29 | CO[C@@H]1CN(C)C(=O)c2cc(NS(C)(=O)=O)ccc2OC[C@H](C)N(C(=O)C2CCCCC2)C[C@@H]1C | inactive: 0.974
30 | CN1CCN(C(=O)C[C@H]2CC[C@@H]3[C@H](COC[C@H](O)CN3S(=O)(=O)c3cccc(Cl)c3)O2)CC1 | inactive: 0.969
31 | CC1CCC(NC(=O)N(CCCl)[NH2+][O-])CC1 (stereo not given) | inactive: 0.998
32 | COc1cccc(NC(=O)N[C@@H]2CC[C@@H](CC(=O)N3CCOCC3)O[C@H]2CO)c1 | inactive: 1.01
33 | O=C(C[C@H]1C=C[C@H](NC(=O)c2ccncc2)[C@H](CO)O1)NCc1ccncn1 | inactive: 0.978
34 | COc1ccc(C#Cc2ccc3c(c2)O[C@H](CN(C)C(=O)CN2CCOCC2)[C@@H](C)CN([C@@H](C)CO)S3(=O)=O)cc1 | inactive: 0.986
35 | CC(=O)OC[C@H]1O[C@@H](n2cc(C)c(=O)[nH]c2=O)C[C@@H]1OC(C)=O | inactive: 1.03
36 | CCOc1ccnc2c1c(=O)n(CC(N)=O)c(=O)n2C | inactive: 1
37 | Cc1ccc(S(=O)(=O)N(C)C[C@@H]2Oc3cc(C#Cc4ccncc4)ccc3S(=O)(=O)N([C@H](C)CO)C[C@H]2C)cc1 | inactive: 1.04
38 | C[C@H](CO)N1C[C@H](C)[C@@H](CN(C)C(=O)Nc2cccc3ccccc23)Oc2c(NC(=O)c3ccc(-c4nccs4)cc3)cccc2C1=O | inactive: 1.06
39 | Cc1ccc(S(=O)(=O)N(C)C[C@@H]2Oc3ccc(NC(=O)CCCN(C)C)cc3C(=O)N([C@H](C)CO)C[C@@H]2C)cc1 | inactive: 1
40 | C[C@@H]1CN([C@@H](C)CO)S(=O)(=O)c2ccc(C#CC3CCCCC3)cc2O[C@@H]1CN(C)C(=O)Cc1ccncc1 | inactive: 0.995
